Here are results for one molecule from patent publication US6103872, “CAPON: a protein associated with neuronal nitric oxide synthase” (The Johns Hopkins University, dated 2000).

For this experiment, the target named is protein kinase C-beta I/II (control protein, rat cerebellar supernatant) (rat, UniProt P68403). Nature of the experiment: co-immunoprecipitation with anti-CAPON antibody from rat cerebellar supernatant, Western blot for PKC-beta I/II.

B1: rat brain CAPON (endogenous, cerebellar supernatant) (other)
chain: MPSKTKYNLVDDGHDLRIPLHNEDAFQHGISFEAKYVGSLDVPRPNSRVEIVAAMRRIRYEFKAKNIKKKKVSIMVSVDGVKVILKKKKKKKEWTWDESKMLVMQDPIYRIFYVSHDSQDLKIFSYIARDGASNIFRCNVFKSKKKSQAMRIVRTVGQAFEVCHKLSLQHTQQNADGQEDGESERNSDGSGDPGRQLTGAERVSTATAEETDIDAVEVPLPGNDILEFSRGVTDLDAIGKDGGSHIDTTVSPHPQEPMLAASPRMLLPSSSSSKPPGLGTGTPLSTHHQMQLLQQLLQQQQQQTQVAVAQVHLLKDQLAAEAAARLEAQARVHQLLLQNKDMLQHISLLVKQVQELELKLSGQSTMGSQDSLLEITFRSGALPVLCESTTPKPEDLHSPLLGAGLADFAHPVGSPLGRRDCLVKLECFRFLPAEDNQPMAQGEPLLGGLELIKFRESGIASEYESNTDESEERDSWSQEELPRLLNVLQRQELGDSLDDEIAV
With B1, the binding result is “no binding”.
